We go through 56 variants from the RNAGym collection of RNA variant scans (doi:10.7554/elife.90254).

Read counts are not given, so values of variants with three or more changes are uncertain.

B1: LINE1-mini (parent)
chain: GGCAGAGCUCAACACAGCGUGGCAAAGUGGCUGUGGCUAGACUGCC

In this data set the parent is B1. The data set can be described thus: self-cleavage, relative activity (ratio to wild type); higher = more cleavage; in vitro, sequencing; the parent is a self-cleaving ribozyme.
As for GGCAGAGCUCAGCACAGCAUGUCAAAGUGGCUUUGGCGAGACGGCC, the self-cleavage worked out at 0.

GGCAGAGCUCACCACAGCUCGGCAAAGUGGCUAUGGCUAGACUGCC: the self-cleavage was found to be 0.02.

For the variant GGCAGAGCUCACCACAAAGUGGCUAAGUGGCGGUGGCUAGACUGCC, the self-cleavage was found to be 0.01.

For GGCAGAGCUCAGCACAGCGUGGCAAAGUGGAUGUGGCUAGAUUGCC, the self-cleavage was 0.07.

In the case of GGCAGAGCUCAGCCCAGCGGGGCAAAGUGGCUGUCGCUAGACUGCA, the self-cleavage came out at 0.02.

With GGCAGAGCUCAGCACAGCGUGGCAAAGUGGUUGUGGCUAGAGUGUC, the self-cleavage came out at 0.01.

As to GGCAGAGCUCACCACAGCGUGUCAAAGUAGCUGUGGCUAGGCUGCC, the self-cleavage came out at 0.01.

As for GGCAGAGCUCAGCACAGAGUGGCAAAGUAGCUGUGGCUAGACUGCC, the self-cleavage is 0.03.

For GGCAGAGCUCAGAACAGCGUGGCAAAGUCGCUGUGGCUAGACUGCC, the self-cleavage stood at 0.02.

For the variant GGCAGAGCUCAGCAGAGCGUGGCAAAGUUGCUGUGGCUAGACUUGC, the self-cleavage worked out at 0.02.

As for GGCAGAGCUCAGCCCAGCGUGUCAAAGUGGCUGUGGCUAGACUGCC, the self-cleavage worked out at 0.03.

As to GGCAGAGCUCACCACAGCGUGGCAAAGUGGCUGUAGCUAGACUUCC, the self-cleavage stood at 0.01.

Take GGCAGAGCUCAGCACAGCGUGGCAAAGUGGCUGUGGUUAGACUAUC: the self-cleavage worked out at 0.03.

On to GGCAGAGCUCACCACAGCGUGUCAAAGUGGCUGUGGCUAGAUUGCC, for which the self-cleavage was 0.03.

In the case of GGCAGAGCUCAGCACAGCCUGGUAAAGUGGCUGUGGCUAGAAUGCC, the self-cleavage was 0.04.

Turning to GGCAGAGCUCACCACAGCGUGGCAAAGUGGCUGUGGCCAGACCGCC, the self-cleavage came out at 0.02.

For the variant GGCAGAGCUCAGCACAGCGUGGCCAGGUGGCUGUGGAUAGACUGAC, the self-cleavage amounted to 0.01.

As for GGCAGAGCUCACCACAUCGUGGCAAAGUGGCUGUGGCUAGACUCCC, the self-cleavage is 0.04.

With GGCAGAGCUCAGCACAGCGUGGCAACGUGGCUGUGGCUAGUCUGCA, the self-cleavage was 0.07.

On to GGCAGAGCUCAGCACAUCGUGGCAAAGUGGCUGAGGCUAGAAUGCC, for which the self-cleavage was found to be 0.01.

With GGCAGAGCUCACCACAGCGUGGCAAAGUGUCUGUGGCUAAACUGCC, the self-cleavage came to 0.01.

With GGCAGAGCUCAGCACAGUGUGGAAAGGGGGCUAUGCCUAGACUGCC, the self-cleavage amounted to 0.02.

For the variant GGCAGAGCUCACCACAGCGUGGCAAAGUGGCGGUGGCUUAACUGCC, the self-cleavage is 0.

As to GGCAGAGCUCAGCACAACGUGGCAAAGCGGCUGAAGCUAGACUGCC, the self-cleavage came to 0.04.

For the variant GGCAGAGCUCACCACAGCGUGGCAAAGUGCCUGUGGCUAGCCUGCC, the self-cleavage stood at 0.01.

For the variant GGCAGAGCUCAGCACCGCGUGGCAAAGUGGCUGUGGCUAUACUGCC, the self-cleavage stood at 0.09.

As for GGCAGAGCUCAGCAAAGCGUGGCGAAGCGGCUGUGGCUAGACUCCC, the self-cleavage came out at 0.01.

For GGCAGAGCUCAGCAAUGCGUGGCAAAGUCGCUGUGGCUAGACUGCA, the self-cleavage was 0.09.

Consider GGCAGAGCUCACCACAGCGUGGCAAAAUGGCUGUGGCUAGACUGCG, for which the self-cleavage was determined as 0.02.

For GGCAGAGCUCAGCACAGCAUCGCAAAGGGGCUGUGGCUAGACUGCC, the self-cleavage turned out to be 0.01.

As to GGCAGAGCUCAGCACAGCGUGGCAACGUGGCUGUGGAUAGACUGAC, the self-cleavage was 0.1.

On to GGCAGAGCUCACCACAGCGUUGCAAAGUGGCUGUGGGUAGACUGCC, for which the self-cleavage amounted to 0.

For GGCAGAGCUCAGGACAGCGUGGCAAAGCGGCUGUGUCCAGUCUGCC, the self-cleavage came out at 0.26.

As for GGCAGAGCUCAGCACGGCGUGGCAAAGUGGCUGUUGCUAGACUGCC, the self-cleavage is 0.04.

On to GGCAGAGCUCACCACAGCGUGGCAAACUGGCUGUGUCUAGACUGCC, for which the self-cleavage was 0.01.

With GGCAGAGCUCAGCACAGCGUGGCCAUGUGGCUGUGGCUGGACUGCC, the self-cleavage came to 0.05.

GGCAGAGCUCACCACAGCGUGACACAGUGGCUGUGGCUAGACUGCC: the self-cleavage was 0.

Turning to GGCAGAGCUCAGCAUAGCGUGGCAAAGGGGCUGUGGCUAGACUGCC, the self-cleavage was 0.02.

Take GGCAGAGCUCAGCGCACCGUGGCAAAGUGGCUGUGGCUAGACUGCC: the self-cleavage stood at 0.01.

GGCAGAGCUCACCACAGCGCCGCAAAGUGGCGGUGGCUAGACUGAC: the self-cleavage was 0.01.

As to GGCAGAGCUCACCACAGCGUGGCAAAAUGGCUGUGGCUAGACUACC, the self-cleavage was found to be 0.01.

For GGCAGAGCUCAGCACAGCGUGGCAAGGUGGCUGUGGCUAGACCGCC, the self-cleavage was 0.04.

For GGCAGAGCUCAGCACAGCGUGGCAAGAUGGCUGUGGCUAGACUGCC, the self-cleavage worked out at 0.01.

Regarding GGCAGAGCUCACCACAGCGUGGCAAAGUGGCAGAGGCUAGACUGCC, the self-cleavage was found to be 0.01.

As to GGCAGAGCUCAGCACAGUGUCGCAAAGGGGCUGUGGCUAGACUGCC, the self-cleavage amounted to 0.02.

With GGCAGAGCUCACCACAGCGUGGCAAAGCGGCUGUGACUAUAGUGCC, the self-cleavage was 0.2.

For the variant GGCAGAGCUCACCACAGCGUGGCAAAGUGGCUGUGGCUACACUGAC, the self-cleavage was 0.01.

Turning to GGCAGAGCUCACCACAGCGUGGCAAAGUGGCUGUGGCUAAGCUGCC, the self-cleavage was found to be 0.04.

As to GGCAGAGCUCACCACAGCGUGGCAAAGUGUCUGUGGUUAGACUGCA, the self-cleavage is 0.01.

For the variant GGCAGAGCUCAGCAUAGCGUGGCAAAGUGGCGGUCGCUAGACCGCC, the self-cleavage turned out to be 0.04.

For GGCAGAGCUCAGCACACCGUCGCAAAGUGGCUGUGGCUAGACUGCC, the self-cleavage amounted to 0.01.

For GGCAGAGCUCAGAACAUCGUGGAAAAGUGGCUGUGGCUAGACUGCC, the self-cleavage was determined as 0.03.

For GGCAGAGCUCAGAACAGCGUGGCAAAGUGGCCGUGGCUAGUCUGCC, the self-cleavage worked out at 0.03.

Take GGCAGAGCUCAGCACAGCAUGGCAAAGUCUCUGUGGAUAGACUGCC: the self-cleavage amounted to 0.02.

For the variant GGCAGAGCUCACCACAGCGAGGCACAGUGGCUGUGGCUAGCCUGCU, the self-cleavage is 0.01.

With GGCAGAGCUCAGCCCAGUGUGGCAAAGUGGCUGUGGCUAGACAGCC, the self-cleavage came out at 0.05.
